According to PubChem BioAssay AID1347120 (National Center for Advancing Translational Sciences (NCATS), 2019):
Out of some 390,000 compounds screened, about 930 (0.24%) were called active. This list was built around the results that the source calls inconclusive (neither active nor inactive); the mix of calls is not that of the screen. Calls follow the shape of the dose curve; as a rule, active = well fitted activation curve with a large enough effect; inconclusive = small, poorly fitted or top-dose-only effect; inactive = no such curve, though single readings can be large or run the other way. Potencies of inconclusive entries are doubtful fits and often do not repeat.

Test: qHTS for Suppressors of FUS Proteinopathy: Primary screen using FUS-linked yeast assay; also: nearly all actives have a fitted effect of over 55% in size;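 as to growth rescue (activation): plate controls were DMSO vehicle for no effect and reference control for full effect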
Details: S. cerevisiae FUS-expressing, OD600, 24 h; Potency: growth rescue; growth rescue (activation): at 76.6 µM (top of the series)
How it was run: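 Toxicity suppression screen in FUS-yeast. Cells induced with 2% galactose, starting OD 0.005, treated 24hr at 30C with compounds at multiple final concentrations; growth by OD600.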
Potency is read from the fitted curve at half-maximal effect; tags tell the direction and shape of the fitted curve.

SMILES	Potency	growth rescue (activation)
COc1ccccc1S(=O)(=O)N(C)C[C@@H]1Oc2cc(C#CCC(C)C)ccc2S(=O)(=O)N([C@H](C)CO)C[C@@H]1C	inconclusive: 25.1 µM [activator, single point]	
Cc1cccc[n+]1CC(=O)Nc1ccc([N+](=O)[O-])cc1Cl		inconclusive: 13.9% [activator]
CN1C2=N[C@@H](c3ccc4c(c3)OCO4)CC(=O)N2/C(=C\c2ccccc2)[C@H]1c1ccccc1	inconclusive: 4.47 µM [activator, partial curve, poor fit]	
Cc1ccc(C)c(-c2ccc(=O)n(C(C)C(=O)Nc3ccccc3C(F)(F)F)n2)c1 (stereo not given)	inconclusive: 2.24 µM [activator, full curve, poor fit]	
COc1cc(O)ccc1-c1nc2ccc(Br)cn2c1Nc1ccccc1C	inactive	
O=C(Nc1cc(Cl)ccc1O)c1snnc1-c1ccccc1	inactive	
CCCCn1c(N)c(N(C(=O)CSc2nnnn2-c2ccc(C)cc2)C2CCCC2)c(=O)[nH]c1=O	inconclusive: 35.5 µM [activator, single point]	
COc1cc(C(c2c(C)[nH][nH]c2=O)c2c(C)[nH][nH]c2=O)ccc1OS(=O)(=O)c1ccccc1	inconclusive: 31.6 µM [activator, partial curve, poor fit]	
CCOC(=O)C1CCN(C(=O)c2ccc3c(=O)n4nc(Nc5ccccc5)sc4nc3c2)CC1	inconclusive: 31.6 µM [activator, single point]	
CCn1cc(CN2CCc3c([nH]c4ccccc34)C2c2ccc(F)c(OC)c2)c(C)n1 (stereo not given)	inconclusive: 25.1 µM [activator, single point]	
COc1ccc(NC2=C(C(C)=O)C(c3ccc4c(c3)OCO4)C(C(C)=O)C(C)(O)C2)cc1 (stereo not given)	inconclusive: 50.1 µM [activator, single point]	
COC(=O)c1ccc(NC(=O)CN(Cc2ccc(Cl)cc2)S(C)(=O)=O)cc1	inconclusive: 1.78 µM [activator, full curve, poor fit]	
Cc1ccc(-n2c(SCC(=O)Nc3ccc(S(=O)(=O)Nc4nccs4)cc3)nnc2-c2cccnc2)cc1	inconclusive: 25.1 µM [activator, partial curve, poor fit]	
COc1ccc(C(=O)c2cn(Cc3cccc(C)c3)c3cc4c(cc3c2=O)OCCO4)cc1OC	inconclusive: 50.1 µM [activator, single point]	
COc1cc(C(=S)N2CCCC2)ccc1OC(=O)c1ccc(Cl)cc1[N+](=O)[O-]	inconclusive: 39.8 µM [activator, partial curve, poor fit]	
CC1Cc2ccccc2N1C(=O)c1ccnc(C(C)(C)C)c1 (stereo not given)	inconclusive: 15.8 µM [activator, partial curve]	
COc1cc(NC(=O)Nc2nc(C(N)C(C)C)cs2)cc(OC)c1OC (stereo not given)	inconclusive: 35.5 µM [activator, partial curve, poor fit]	
COc1ccc2[nH]cc(C(=O)CN3CCC(C)CC3)c2c1		inconclusive: 68.4% [activator]
CCC1(C)Cc2ccccc2-c2nc(NCCCO)n(-c3ccccc3)c(=O)c21 (stereo not given)	inconclusive: 31.6 µM [activator, partial curve, poor fit]	
CC(=O)Nc1cc(-c2cccc(C(=O)N(C)C)c2)cn2c(-c3cccc(C(F)(F)F)c3)cnc12	inconclusive: 31.6 µM [activator, single point]	

SMILES	Potency	growth rescue (activation)
COc1ccccc1C(=O)COC(=O)c1cccc(-n2cnnn2)c1	inactive	
CCN(CC)c1ccc(NC(=O)CSc2nnc(-c3ccc(Cl)cc3)n2Cc2ccco2)cc1	inconclusive: 10 µM [activator, partial curve]	
CCCCOc1ccc(C2c3c(oc4ccccc4c3=O)C(=O)N2c2nc(C)c(C(=O)OCC)s2)cc1OC (stereo not given)	inactive	
COc1cc(OC)c2ccc(=O)oc2c1C(CC(=O)N1CCN(c2ccccc2)CC1)c1ccc2c(c1)OCO2 (stereo not given)	inconclusive: 35.5 µM [activator, single point]	
O=C(NC(c1ccccc1)c1ccc2ccccc2n1)C1CCN(CCOc2ccc(Cl)cc2Cl)CC1 (stereo not given)	inconclusive: 14.1 µM [activator, partial curve]	
COC(=O)c1ccc2nc(-c3ccc(OC)c(OC)c3)c(Cc3ccccc3)n2c1	inconclusive: 50.1 µM [activator, single point]	
CN(C(=O)c1cccc(NC(=O)Cc2ccc(NC(=O)C3CCCN(C(=O)c4ccccc4)C3)cc2)c1)C1CCCC1 (stereo not given)	inconclusive: 50.1 µM [activator, single point]	
COC(=O)[C@@]12C[C@@H](CC(=O)NCCc3ccccc3OC)C(=O)N(Cc3cccc4ccccc34)C1=CCC(C)(C)C2	inconclusive: 15.8 µM [activator, partial curve, poor fit]	
CC(=O)Oc1ccc(C(=O)Nc2cccc(C(=O)c3ccc(C)c(C)c3)c2)cc1	inconclusive: 35.5 µM [activator, single point]	
Oc1ccc(Nc2nc(-c3ccc(Cl)cc3)nc3ccccc23)cc1	inconclusive: 20 µM [activator, single point]	
C#CCOCCOCCOCCNc1nc(N2CCN(C(=O)CCCCCCCCCCNC(=O)Cn3cc(CCCCCN)nn3)CC2)nc(N2CCN(C(=O)CCCCCCCCCCNC(=O)[C@@H]([C@H](C)O)n3cc(C)nn3)CC2)n1	inconclusive: 14.1 µM [activator, partial curve, poor fit]	
Cc1ccc(OCc2ccc(C(=O)Nc3nccs3)o2)cc1	inactive	
COc1ccc(CN2CCN(Cc3c[nH]c4ccccc34)CC2)cc1	inactive	
CCn1c2ccccc2c2cc(C=NNC(=O)CSc3nc4ccccc4c(=O)n3-c3ccccc3)ccc21	inactive	
O=C1OC[C@@H]2CCCN2C(=O)[C@H](CC(=O)N(CCO)Cc2ccccc2)C/C=C\CC[C@H]1Cc1ccc(F)cc1	inconclusive: 28.2 µM [activator, partial curve]	
CC(=O)OCC(OC(C)=O)C(OC(C)=O)C(OC(C)=O)C(=O)Nc1ccc(C)cc1 (stereo not given)		inconclusive: 54.1% [activator]
O=C(N/N=C/c1ccc(Cl)c([N+](=O)[O-])c1)c1cc(-c2ccc3c4c(cccc24)CC3)n[nH]1	inconclusive: 1.41 µM [activator, full curve, poor fit]	
Cn1c(C(=O)N2CCC(C(=O)NCCc3ccc(S(N)(=O)=O)cc3)CC2)cc2sccc21	inconclusive: 50.1 µM [activator, single point]	
CC(Cc1cccs1)NC(=O)Nc1ccc(Cl)cc1 (stereo not given)	inactive	
COc1ccc(CNC(=O)Cn2ccc3cc(S(=O)(=O)N4CCCCCC4)ccc32)c(OC)c1	inconclusive: 20 µM [activator, partial curve, poor fit]	

SMILES	Potency	growth rescue (activation)
COc1ccccc1-c1nnc(SCc2nc3ccccc3s2)n1C		inconclusive: 87.6% [activator]
COc1ccc(Oc2nc3c(c(=O)n(Cc4ccccc4Cl)c(=O)n3C)n2C)cc1	inactive	
Cc1cc2ccccc2n1-c1ccc(C(=O)N2CCC(C(=O)NCc3ccc(F)cc3)CC2)s1	inconclusive: 8.91 µM [activator, partial curve]	
COCCCNC(=O)C[C@H]1C[C@@]2(C(=O)OC)C(=C[C@H](C3CCCC3)O[C@@H]2C)N(Cc2ccco2)C1=O	inactive	
Cc1c(Cl)cccc1NC(=O)CSc1cc(-c2ccccc2)ncn1	inactive	
COc1cccc(NC(=O)c2ccc(CNS(=O)(=O)c3ccc4c(c3)C(C)(C)C(=O)N4C)cc2)c1	inactive	
Cc1ccc([N+](=O)[O-])cc1NC(=O)CN(C(=O)c1ccc(Cl)cc1)C1CCCCC1	inconclusive: 35.5 µM [activator, single point]	
Cc1ccc(NC(=O)Cn2cc(S(=O)(=O)NC(C)C)c(S(=O)(=O)NC(C)C)c2)cc1Cl	inactive	
Cc1cc(C)c(S(=O)(=O)Nc2cccc(-c3cn4ccccc4n3)c2)c(C)c1	inconclusive: 39.8 µM [activator, partial curve, poor fit]	
CCCn1c(N2CCC(Cc3ccccc3)CC2)nc2c1c(=O)[nH]c(=O)n2C	inactive	
Cc1ccc(CN2CC(C(=O)O)CC2=O)cc1 (stereo not given)	inconclusive: 50.1 µM [activator, single point]	
Cc1cccc2cc(C#N)c(SCC(=O)NNC(=O)Cc3ccccc3)nc12	inactive	
CCN(CC)C(=O)N1CCN(S(=O)(=O)c2ccc(C)c(C)c2)CC1	inconclusive: 39.8 µM [activator, single point]	
COC(=O)C1=CN(Cc2ccc(OC)cc2)C=C(C(=O)OC)C1c1ccc(O)c(OC)c1	inconclusive: 2.51 µM [activator, partial curve, poor fit]	
COc1cccc(N(Cc2nnc3n2CCCCC3)C(=O)Nc2cccc(Cl)c2)c1	inactive	
CC(C)CNC(=O)C1CSCCS(=O)(=O)N1Cc1ccc(F)cc1 (stereo not given)	inactive	
Cc1ccc(-n2ncc3c(N(CCO)Cc4ccccc4)ncnc32)cc1	inconclusive: 44.7 µM [activator, single point]	
O=C(CSc1nnc(-c2cccs2)n1Cc1ccco1)Nc1ccc(OCc2ccccc2)cc1	inconclusive: 12.6 µM [activator, partial curve, poor fit]	
Cc1ccc(-n2c(Cc3cccn3C)nnc2SCC(=O)NCc2ccc3c(c2)OCO3)cc1	inconclusive: 22.4 µM [activator, partial curve, poor fit]	
CCN(CC)c1ncnc2scc(C3COc4ccccc4O3)c12 (stereo not given)	inactive	
